Measured values taken from the supplement of paper PMC3334620.
Over roughly 33,000 sequences, “E-score (-0.5 to 0.5)” has its median near -0.035; the highest 2% begin near 0.34. The list shows a part of the results.

Each sequence was assayed against T1, Mot3 (UniProt P54785) (assay: PBM E-score (8-mer binding enrichment) (E-score (-0.5 to 0.5)); higher = stronger / more preferred TF binding; most listed sequences are background and not binding sites). Settings: protein concentration: 200 nM; construct: GST-full length.
T1 sequence: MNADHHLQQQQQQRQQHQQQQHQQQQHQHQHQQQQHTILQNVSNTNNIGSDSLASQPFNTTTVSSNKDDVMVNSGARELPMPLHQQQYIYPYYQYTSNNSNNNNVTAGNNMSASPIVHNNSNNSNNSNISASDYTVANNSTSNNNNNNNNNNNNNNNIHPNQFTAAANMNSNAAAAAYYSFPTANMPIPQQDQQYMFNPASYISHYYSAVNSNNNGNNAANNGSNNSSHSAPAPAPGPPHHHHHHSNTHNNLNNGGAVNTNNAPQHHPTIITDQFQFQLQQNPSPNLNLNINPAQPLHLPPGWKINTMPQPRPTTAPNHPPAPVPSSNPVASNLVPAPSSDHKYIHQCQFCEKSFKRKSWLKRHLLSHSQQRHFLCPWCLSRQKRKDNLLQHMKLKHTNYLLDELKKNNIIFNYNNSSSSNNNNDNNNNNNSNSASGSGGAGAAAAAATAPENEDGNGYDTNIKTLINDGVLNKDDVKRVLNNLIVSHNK
How it was run: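 Universal all-10-mer Agilent arrays, double-stranded by primer extension on fresh or once-stripped slides, were probed with about 100-200 nM GST-tagged yeast transcription factors made by PURExpress. Fluorescent anti-GST detected bound protein, and masliner normalised the scans. E-scores from the Universal PBM Analysis Suite were given to each ungapped eight-base word pooled with its reverse complement.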

Sequence | PBM E-score
GGGCAGGA | 0.00356
AAGCTTCC | -0.11
ATTATGTC | 0.13
CTGTAGCC | -0.0392
ACGATCCA | -0.0439
TAATAACA | 0.284
GCCATGTA | 0.383
AACTTTAT | 0.197
AGACAAAG | -0.0532
CAGTAATC | -0.0977
CGAATGAG | -0.134
ATTTTACG | 0.268
ATAGATCC | -0.206
AGACGAGA | -0.0859
CCTCTAAC | -0.0721
GGCTAAAA | -0.207
ACTGACAT | 0.0766
CCACGTAA | 0.271
GCAATGCC | 0.0774
GTCCCCCA | -0.112
CCTAAGAA | 0.191
ATATTCAA | 0.0249
GGACAAGA | -0.102
ACCGGATC | -0.048
CTTAGTCA | -0.182

Sequence | PBM E-score
AAGCTACG | -0.051
GTATTGGA | -0.037
GATTGAGA | 0.0267
AAGGTTGG | -0.097
CCACTCCG | -0.351
GATAGTCC | -0.0634
GCATCGCA | -0.36
AATTAGAT | 0.15
GCCGAAAC | -0.29
AACGATAC | 0.00245
AAGTATGG | -0.0425
ATTAGTAC | 0.116
ATGGGCGG | -0.112
AATAATTA | 0.172
GATAGACA | -0.0104
CCAGTCGG | -0.114
ATCCTGTG | 0.186
GGTAGGTA | 0.269
GCGTCCGA | -0.095
AGCGTTTC | 0.127
CCCAATAG | 0.111
CTAAGATC | -0.179
AGGGGGCC | -0.269
GCAGATCC | -0.0612
CCACATTC | -0.222

Sequence | PBM E-score
AGGTGACT | 0.156
CTTTCCGC | -0.109
TGACCTAA | 0.0576
CATTAGCA | 0.135
AGATTAGG | 0.042
GCCAACCA | -0.315
CGTGCGTA | 0.277
AGCCGGAA | -0.0394
AAACATTC | -0.0209
GGCGGATA | -0.0138
GCCCGGCC | -0.182
ATTCCAAC | 0.00023
AAGGTTAA | 0.0994
CGACGACC | -0.311
CGCCTTCC | -0.00115
ACGTAGCA | 0.0713
ACAGCCGA | -0.138
AACGGAAT | -0.0211
AGCCTTTG | 0.0698
CGAGCACA | 0.0344
CGCGCTAA | 0.0891
GAATGTAA | 0.295
CCCAAAGC | -0.272
AGTAACCC | -0.0877
AAGCCATT | -0.0129

Sequence | PBM E-score
AACTATTG | -0.0347
TTACGAAA | 0.119
ACGACTCG | -0.0679
TCACGACA | 0.163
AGTAGGCA | 0.481
AGTGACAA | -0.0444
CCTCTCCG | -0.182
CGGTAATA | -0.00636
GAATATAA | -0.0894
AGGAGGCC | -0.263
CTCGGGTC | -0.264
GATACTAC | -0.044
ATAGCTTC | -0.284
AATGCCCT | -0.189
CCATGTAG | 0.346
ATCTGACA | -0.0806
AGCTCTCG | -0.181
TGATCGCA | -0.0867
ACGGTCGG | -0.0663
CTAGAAAC | -0.0677
GGTGCCGA | 0.0164
AAGAAAGA | -0.0446
AGGAGTGC | -0.146
GAAACCTC | -0.145
AGATGAGG | -0.208

Sequence | PBM E-score
CCCTCAAC | -0.239
CGATATCG | 0.0549
ACAGAAAC | 0.198
CAGGTAAC | 0.39
CGTATCTA | -0.052
CTGCATCA | 0.155
GCCTCCGA | 0.0149
ATCAGCGC | -0.0594
AGACACTG | -0.188
CCGCTCAA | -0.0748
ATATACAC | 0.358
AACAACGG | 0.105
CCTACTTC | -0.0137
AAAGGGGT | 0.124
AGTCAATG | -0.0698
GATCGGGA | -0.259
CTAAATAG | -0.0131
CGTAGTAC | 0.0807
CCTGTGTC | 0.194
AGGGGAAG | -0.188
CGTAGTCA | 0.0231
TACAGAAA | 0.046
CGACCTCC | -0.141
ACTTGAAT | 0.102
ACCAGCCG | -0.216

Sequence | PBM E-score
ATAGTTGC | 0.0674
CAGGTGGC | -0.216
AATCATTA | 0.0151
CCTCAGTA | -0.209
GAGGATAC | -0.118
CCAGTTCA | -0.101
CCGGTCAA | -0.0358
CGGCACCC | -0.126
CATCGCGA | -0.0776
CAAGACTC | -0.279
ATCTCAAG | -0.00251
AGGCTTGA | -0.0982
CGACGTGA | 0.098
AGCTCAAA | 0.132
GGAGGAAC | 0.272
CGGTCAAA | 0.0302
ATAAGGCG | 0.0672
GGCTGAGA | -0.183
CGTCCTCA | -0.121
AAAAACAA | 0.244
CCATGGTC | -0.066
ACCCCCTC | -0.168
GACAACTC | -0.0464
ATGGCGAA | -0.149
ATGCAGAG | -0.0249

Sequence | PBM E-score
GATCCCGA | -0.316
ATATGGAG | -0.00103
CCCCCGGC | -0.249
CACGGCTG | -0.136
GTAAGGCA | 0.464
AGGTCCCG | -0.243
GTCCATCA | -0.187
ACCGTACC | 0.0886
GGGATCGA | -0.136
CGCACCAA | -0.0888
ACGAATTC | -0.071
GTACCGAA | 0.0806
AGCTGGGG | -0.248
CAGCCCCC | -0.268
CTGGGAGA | -0.0824
AGCAAGCA | -0.127
AACTGTGT | 0.297
GCTTGACA | 0.141
ACGGCCAT | -0.187
GCCCCCGC | -0.325
GACGCTGA | 0.0483
TCCATGAA | -0.0433
